Data taken from the supplement of paper PMC12462457.
Where a name gives a salt, the structure may show the parent alone. ± gives the standard deviation of the averaged measurements. This is one part of the list.

Tested on: OVCAR8
Assay: cell count relative to DMSO vehicle (fold change); OVCAR8 is a high-grade serous ovarian cancer line and CX-5461 an RNA polymerase I inhibitor; higher = more surviving senescent cells (less killing)
Conditions: senescence inducer: CX-5461 3 µM 48 h, then 6 d recovery (CX senescent), exposure time 24 h

SMILES | cell count (compound dose 1 µM) | cell count (compound dose 5 µM)
CCN1CCN(C(=O)Cc2ccc(Nc3ncc(F)c(Nc4ccc(C(=O)Nc5ccccc5Cl)cc4)n3)cc2)CC1 [Aurora A Inhibitor I] | 1.01 ± 0.14 | 0.913 ± 0.11
CO[C@H]1C[C@H](O[C@H]2CC[C@]3(C)[C@H]4CC[C@]5(C)[C@@H](C6=CC(=O)OC6)CC[C@]5(O)[C@@H]4CC[C@]3(O)C2)O[C@H](C)[C@H]1O[C@@H]1O[C@H](CO)[C@@H](O)[C@H](O)[C@H]1O [Periplocin] | 0.223 ± 0.19 | 0.015 ± 0.0028
CN(C)C(=O)OC1=C(c2cccc3ccccc23)Oc2ccccc2-n2cccc21 | 1.04 ± 0.11 | 0.957 ± 0.25
CCOC(=O)[C@H](Cc1ccc(F)cc1)NC(=O)[C@@H](N)Cc1ccc(N(CCCl)CCCl)cc1 [Melflufen (hydrochloride)] | 0.889 ± 0.28 | 0.117 ± 0.0078
CC1=CC(=O)[C@@H](O)[C@]2(C)[C@H]3[C@@H](O)[C@H](O)[C@]4(C)OC[C@@]35[C@@H](C[C@@H]12)OC(=O)[C@H](O)[C@]54O [Bruceine D] | 0.995 ± 0.1 | 0.96 ± 0.069
O=C(O)c1nn(Cc2ccc(Cl)cc2Cl)c2ccccc12 | 1.21 ± 0.081 | 1.22 ± 0.04
C[S+]([O-])/C=C/CCN=C=S (stereo not given) [Sulforaphene] | 1.2 ± 0.23 | 1.05 ± 0.15
S=P1(c2ccccc2)Nc2ccccc2O1 (stereo not given) | 1.05 ± 0.22 | 1.16 ± 0.2
COc1cc2c(c(OC)c1OC)-c1ccc(OC)c(=O)cc1[C@@H](NC(C)=O)CC2 [Colchicine] | 1.24 ± 0.0057 | 1.09 ± 0.18
O=C(O)CC[N+](=O)[O-] [3-Nitropropanoic acid] | 1.14 ± 0.051 | 1.09 ± 0.25
CC(C)=CCCC(C)(O)C1CCC2(C)C1C(O)CC1C3(C)CCC(OC4OC(CO)C(O)C(O)C4O)C(C)(C)C3CCC12C [20(R)-Ginsenoside Rh2] | 1.113 ± 0.011 | 1.17 ± 0.093
O=C(CBr)N1CC([N+](=O)[O-])([N+](=O)[O-])C1 | 1.09 ± 0.16 | 1.13 ± 0.24
S=C=NCc1ccccc1 | 0.944 ± 0.063 | 0.992 ± 0.28
CC[C@@H](C(=O)[C@@H](C)[C@@H](O)[C@H](C)[C@@H]1O[C@@H]([C@@H](CC)C(=O)O)CC[C@@H]1C)[C@H]1O[C@]2(C=C[C@@H](O)[C@]3(CC[C@@](C)([C@H]4CC[C@](O)(CC)[C@H](C)O4)O3)O2)[C@H](C)C[C@@H]1C [Salinomycin (sodium salt)] | 1.16 ± 0.13 | 1.03 ± 0.021
CC[C@@H](C(=O)[C@@H](C)[C@@H](O)[C@H](C)[C@@H]1O[C@@H]([C@@H](CC)C(=O)O)CC[C@@H]1C)[C@H]1O[C@]2(C=C[C@@H](O)[C@]3(CC[C@@](C)([C@H]4CC[C@](O)(CC)[C@H](C)O4)O3)O2)[C@H](C)C[C@@H]1C [Salinomycin] | 1.03 ± 0.11 | 0.988 ± 0.077
OC(Cc1ccncc1)C(Cl)(Cl)Cl (stereo not given) | 1.13 ± 0.18 | 1.13 ± 0.2
Cn1cc(C2=C(c3cn(C4CCN(Cc5ccccn5)CC4)c4ccccc34)C(=O)NC2=O)c2ccccc21 | 1.12 ± 0.13 | 1.18 ± 0.076
C[C@@H]1CC[C@@]2(OC1)O[C@H]1C[C@H]3[C@@H]4CC=C5C[C@@H](O[C@@H]6O[C@H](CO)[C@@H](O[C@@H]7O[C@@H](C)[C@H](O)[C@@H](O)[C@H]7O)[C@H](O)[C@H]6O[C@@H]6O[C@@H](C)[C@H](O)[C@@H](O)[C@H]6O)CC[C@]5(C)[C@H]4CC[C@]3(C)[C@H]1[C@@H]2C [Dioscin] | 1.09 ± 0.15 | 0.415 ± 0.14
O=C1C=CC[C@@H]2[C@H]3CCCN4CCC[C@@H](CN12)[C@@H]34 [Sophocarpine] | 1.07 ± 0.25 | 1.05 ± 0.17
CN1Cc2c(ccc3c2OCO3)[C@@H]2[C@H]1c1cc3c(cc1C[C@@H]2O)OCO3 [Chelidonine] | 1.25 ± 0.29 | 1.36 ± 0.03
COc1cc2c3cc1Oc1c(OC)c(OC)cc4c1[C@@H](Cc1cccc(c1)Oc1ccc(c(O)c1)C[C@@H]3N(C)CC2)N(C)CC4 | 1.13 ± 0.017 | 1.16 ± 0.037
O=C(O)C(=O)c1cn(Cc2ccccc2)c2ccc(-c3ccc(OC(F)(F)F)cc3)cc12 [Tiplaxtinin] | 1.22 ± 0.31 | 1.19 ± 0.36
CC(C)=CCC[C@](C)(O)[C@H]1CC[C@]2(C)[C@@H]1[C@H](O)C[C@@H]1[C@@]3(C)CC[C@H](O[C@@H]4O[C@H](CO)[C@@H](O)[C@H](O)[C@H]4O)C(C)(C)[C@@H]3CC[C@]12C [Ginsenoside Rh2] | 1.04 ± 0.1 | 0.914 ± 0.22
CC(C)[C@]12O[C@H]1[C@@H]1O[C@]13[C@]1(O[C@H]1C[C@H]1C4=C(CC[C@@]13C)C(=O)OC4)[C@@H]2O [Triptolide] | 0.94 ± 0.16 | 0.895 ± 0.021
CC(C)(C)c1cc(C=C(C#N)C#N)cc(Br)c1O | 1.07 ± 0.047 | 1.08 ± 0.059
O=C(c1ccccc1O)c1[nH]c(Cl)c(Cl)c1-n1c(C(=O)c2ccccc2O)cc(Cl)c1Cl [Maritoclax] | 1.24 ± 0.44 | 1.23 ± 0.31
CC(=O)O[C@H]1C[C@]2(O)[C@@H]3CC[C@@H]4C[C@@H](O)CC[C@]4(C)[C@H]3CC[C@]2(C)[C@H]1c1ccc(=O)oc1 [Bufotalin] | 0.024 ± 0.025 | 0.0195 ± 0.0064
Cn1c(CCCC(=O)O)nc2cc(N(CCCl)CCCl)ccc21 [Bendamustine (hydrochloride)] | 1.16 ± 0.32 | 1.16 ± 0.24

SMILES | cell count (compound dose 1 µM) | cell count (compound dose 5 µM)
COc1cc(C(=O)O[C@H]2[C@@H]3C=CO[C@@H](O[C@@H]4O[C@H](CO)[C@@H](O)[C@H](O)[C@H]4O)[C@@H]3[C@@]3(CO)O[C@@H]23)ccc1O [Picroside II] | 1.06 ± 0.03 | 1.11 ± 0.043
Cc1sc2c(c1C)C(c1ccc(Cl)cc1)=N[C@@H](CC(N)=O)c1nnc(C)n1-2 | 1.11 ± 0.061 | 1.2 ± 0.096
CCOC1c2c(ccc3c2OCO3)-c2ccc3cc4c(cc3c2N1C)OCO4 (stereo not given) [Ethoxysanguinarine] | 0.002 | 0.108 ± 0.043
C=CC(=O)N[C@H]1C=C(C)c2c(-c3cnc4ccccc4c3)c3c(N)ncnc3n2C1 | 1.19 ± 0.1 | 1.02 ± 0.13
C/C(=C\c1csc(C)n1)[C@@H]1C[C@@H]2O[C@@H]2CCC[C@H](C)[C@H](O)[C@@H](C)C(=O)C(C)(C)[C@@H](O)CC(=O)O1 [Epothilone A] | 1 ± 0.091 | 1.09 ± 0.099
COC1=C[C@@H]2[C@@H]3Cc4ccc(OC)c(O)c4[C@]2(CCN3C)CC1=O [Sinomenine hydrochloride] | 1.055 ± 0.0028 | 1.08 ± 0.18
COC1=C[C@@H]2[C@@H]3Cc4ccc(OC)c(O)c4[C@]2(CCN3C)CC1=O | 1.08 ± 0.046 | 1.06 ± 0.071
C/C=C(\C)C(=O)O[C@H]1C[C@@H](OC(C)=O)[C@@]2(C(=O)OC)CO[C@H]3[C@@H](O)[C@@](C)([C@]45O[C@@]4(C)[C@H]4C[C@@H]5O[C@@H]5OC=C[C@@]54O)[C@H]4[C@]1(CO[C@]4(O)C(=O)OC)[C@@H]32 | 1.12 ± 0.021 | 1.09 ± 0.18
Cc1cc2c(C(C)C)c(O)c(O)c(C=O)c2c(O)c1-c1c(C)cc2c(C(C)C)c(O)c(O)c(C=O)c2c1O | 1.08 ± 0.056 | 1.06 ± 0.059
O=c1[nH]c2ccc(Cl)cc2c(N[C@@H]2CN3CCC2CC3)c1-c1nc2ccccc2[nH]1 | 0.709 ± 0.0014 | 0.517 ± 0.081
O=C1Nc2ccc3ncsc3c2/C1=C/c1cnc[nH]1 | 0.867 ± 0.15 | 0.894 ± 0.17
NCCCNCCSP(=O)(O)O | 1.05 ± 0.18 | 1.01 ± 0.13
C=C(CO)C(=O)O[C@H]1CC(=C)[C@@H]2C[C@H](O)C(=C)[C@@H]2[C@H]2OC(=O)C(=C)[C@@H]21 [Cynaropicrin] | 0.917 ± 0.0085 | 0.371 ± 0.04
COc1cc2c(cc1OC)-c1c(oc3c4c(ccc3c1=O)OC(C(C)C)C4)CO2 (stereo not given) | 1.13 ± 0.013 | 1.28 ± 0.17
COc1c(C)c(O)cc2[o+]c(-c3ccccc3)ccc12.[O-][Cl+3]([O-])([O-])[O-] [Dracorhodin perchlorate] | 1.22 ± 0.36 | 1.2 ± 0.32
CC(C)[C@]12O[C@H]1[C@@H]1O[C@@]13[C@@]1(C)CCC4=C(COC4=O)[C@@H]1C[C@@H]1O[C@@]13C2=O [Triptonide] | 0.796 ± 0.011 | 0.745 ± 0.036
C[C@@]1(C(=O)O)CC[C@]2(C)CC[C@]3(C)C4=CC(=O)c5c(cc(O)c(O)c5C=O)[C@]4(C)CC[C@@]3(C)[C@@H]2C1 [Demethylzeylasteral] | 0.788 ± 0.019 | 1.091 ± 0.0014
Cn1c(COP(=O)(NCCBr)NCCBr)cnc1[N+](=O)[O-] [Evofosfamide] | 1.17 ± 0.18 | 1.16 ± 0.1
Cc1ncc(C[n+]2csc(CCO)c2C)c(=O)[nH]1 [Oxythiamine] | 1.17 ± 0.28 | 1.17 ± 0.24
C[C@@H]1CC[C@]2(NC1)O[C@H]1C[C@H]3[C@@H]4CC=C5C[C@@H](O)CC[C@]5(C)[C@H]4CC[C@]3(C)[C@H]1[C@@H]2C | 1.06 ± 0.16 | 1.1 ± 0.17
O=C1C2CCN(CC2)C1(CO)CO | 0.97 ± 0.033 | 0.871 ± 0.12
C[C@H]1CC[C@]2(NC1)O[C@H]1C[C@H]3[C@@H]4CC[C@H]5C[C@@H](O[C@@H]6O[C@H](CO)[C@H](O[C@@H]7O[C@H](CO)[C@@H](O)[C@H](O[C@@H]8OC[C@@H](O)[C@H](O)[C@H]8O)[C@H]7O[C@@H]7O[C@H](CO)[C@@H](O)[C@H](O)[C@H]7O)[C@H](O)[C@H]6O)CC[C@]5(C)[C@H]4CC[C@]3(C)[C@H]1[C@@H]2C [Tomatine] | 0.166 ± 0.059 | 0.0245 ± 0.005
N#Cc1cn([C@@H]2O[C@H](CO)[C@@H](O)[C@H]2O)c2ncnc(N)c12 [Toyocamycin] | 1 ± 0.057 | 1.02
O=C1c2ccccc2C(=O)c2c1cccc2-c1cnn(C2CCNCC2)c1 [PDK4-IN-1 (hydrochloride)] | 0.981 ± 0.098 | 0.941 ± 0.025
C[C@]12CC[C@H](O)C[C@@]1(O)CC[C@@H]1[C@@H]2CC[C@]2(C)[C@@H](c3ccc(=O)oc3)[C@@H](O)[C@H]3O[C@]132 [Desacetylcinobufotalin] | 1.22 ± 0.04 | 0.795 ± 0.16
O=C1CCC[C@@H]2[C@H]3CCCN4CCC[C@H](CN12)[C@@H]34 [Sophoridine] | 1.19 ± 0.17 | 1.11 ± 0.33
COc1ccc2c(c[n+](C)c3c4cc5c(cc4ccc23)OCO5)c1OC [Chelerythrine (chloride)] | 1.18 ± 0.14 | 1.2 ± 0.2
